# Reference: publication PMC4336329 (PLoS ONE, 2015)
# Among all 310,000 compounds or so, about 2,200 (0.71%) showed an effect of 50% or more. The effect is printed as a negative number. The list shows a part of the results.
# Target: human ether-à-go-go-related gene (hERG) potassium channel (human, UniProt Q12809)
# Experiment: primary screen, population patch clamp on CHO cells stably expressing hERG
# human ether-à-go-go-related gene (hERG) potassium channel, sequence (Q12809 whole entry, looked up): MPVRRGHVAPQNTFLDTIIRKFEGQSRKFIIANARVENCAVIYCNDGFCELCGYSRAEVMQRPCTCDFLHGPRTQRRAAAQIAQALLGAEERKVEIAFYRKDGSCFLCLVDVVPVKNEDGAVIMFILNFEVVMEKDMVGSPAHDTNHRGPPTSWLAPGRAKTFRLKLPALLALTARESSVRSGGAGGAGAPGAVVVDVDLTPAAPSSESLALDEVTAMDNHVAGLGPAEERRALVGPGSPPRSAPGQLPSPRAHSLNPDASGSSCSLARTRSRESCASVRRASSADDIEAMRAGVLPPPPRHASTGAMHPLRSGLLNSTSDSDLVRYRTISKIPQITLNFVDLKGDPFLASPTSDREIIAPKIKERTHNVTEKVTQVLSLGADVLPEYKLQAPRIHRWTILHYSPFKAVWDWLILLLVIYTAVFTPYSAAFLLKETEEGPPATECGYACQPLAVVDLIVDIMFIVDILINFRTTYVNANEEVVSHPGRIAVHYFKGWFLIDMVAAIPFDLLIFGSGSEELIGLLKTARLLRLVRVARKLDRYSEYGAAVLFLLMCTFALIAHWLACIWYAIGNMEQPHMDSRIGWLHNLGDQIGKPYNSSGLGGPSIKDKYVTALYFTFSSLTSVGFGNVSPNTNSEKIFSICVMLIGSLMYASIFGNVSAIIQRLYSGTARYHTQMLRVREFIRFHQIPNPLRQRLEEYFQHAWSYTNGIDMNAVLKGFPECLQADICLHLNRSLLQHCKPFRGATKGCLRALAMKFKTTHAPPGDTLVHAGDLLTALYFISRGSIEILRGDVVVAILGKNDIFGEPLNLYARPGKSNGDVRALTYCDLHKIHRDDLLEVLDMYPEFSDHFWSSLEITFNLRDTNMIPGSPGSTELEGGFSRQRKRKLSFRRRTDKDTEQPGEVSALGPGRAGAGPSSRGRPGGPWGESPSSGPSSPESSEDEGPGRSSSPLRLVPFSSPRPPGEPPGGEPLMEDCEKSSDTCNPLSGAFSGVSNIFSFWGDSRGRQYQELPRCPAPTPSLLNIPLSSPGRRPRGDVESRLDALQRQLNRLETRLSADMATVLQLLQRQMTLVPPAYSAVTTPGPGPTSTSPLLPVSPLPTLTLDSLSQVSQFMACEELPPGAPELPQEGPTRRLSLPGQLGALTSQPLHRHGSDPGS
row,Compound,"hERG current change (%, negative = inhibition) at 1uM"
1,Nc1c(-c2ccccc2)cnn1-c1cccc([N+](=O)[O-])c1,7.6%
2,O=C(Cc1cccs1)N1CCN(S(=O)(=O)c2ccc(Cl)c(C(F)(F)F)c2)CC1,8.43%
3,CCCNC(=O)NCCC12CC3CC(CC(C3)C1)C2,9.13%
4,COCCNC(=O)c1cc2cc(Br)cc(OC)c2oc1=O,-0.621%
5,CCOC(=O)Cn1c(=O)oc2cc(S(=O)(=O)N(C)Cc3ccccc3)ccc21,6.29%
6,O=C(NCCCNC(=O)c1ccccn1)c1ccc(Br)cc1,13.2%
7,CCC1Oc2ccc(C)cc2N(CC(=O)NC2CCCCC2)C1=O (stereo not drawn),6.69%
8,COc1ccc(C2CC(c3ccc(C)cc3)=NN2C(=O)CCC(=O)O)cc1OC (stereo not drawn),10.4%
9,CC1(C)CC(=O)C=C(Nc2ccc(Cl)c(Br)c2)C1,0.929%
10,CCN(CC(=O)Nc1ccc(NC(C)=O)cc1)C(=O)c1cc2c(s1)CCCC2,7.65%
11,O=S(=O)(NCCCN1CCOCC1)c1ccc(Cl)cc1,15%
12,COc1ccc(/C=C2/Sc3ccc(C(=O)NCCCN4CCOCC4)cc3NC2=O)cc1OC,12.3%
13,CCOc1ccc(C(=O)Nc2cc3c(cc2N2CCCC2)n(CC)c(=O)n3CC)cc1OCC,8.98%
14,CCOC(=O)C1CCN(S(=O)(=O)c2c(C)noc2C)CC1,-13.2%
15,CCn1c2ccccc2c2cc(NC(=O)C(=O)N3CCOCC3)ccc21,13.5%
16,O=C1C(Nc2ccccc2)=C2CCCC=C2N1c1ccccc1,9.18%
17,CN(c1ccccc1)S(=O)(=O)c1ccc(NC(=O)c2ccc(-c3ccccc3)cc2)cc1,6.91%
18,O=C(OCc1nnc(-c2cccs2)o1)C1=NN(c2ccccc2)C(=O)CC1,1.34%
19,Cc1cc2oc(C(=O)Nc3ccc(S(=O)(=O)N4CCCC(C)C4)cc3)cc(=O)c2cc1Cl (stereo not drawn),10.5%
20,CC1=NN(S(=O)(=O)c2ccc(F)cc2)C(=O)c2ccccc2O1,4.16%
21,O=C(O)CSC(C(=O)Nc1ccc(Br)cc1)c1ccccc1 (stereo not drawn),1.04%
22,COc1ccc(NCc2nnc(SCC(=O)NCc3ccccc3)n2-c2ccccc2OC)cc1,-0.185%
23,O=C(CSc1nccc(-c2cccs2)n1)Nc1ccc(Cl)cc1,7.66%

row,Compound,"hERG current change (%, negative = inhibition) at 1uM"
1,COc1ccc(C(NC(=O)/C=C/c2ccco2)c2ccc(OC)c(OC)c2)cc1OC,11.4%
2,Cn1c(C(=O)Nc2ccc3c(c2)OCCO3)cc2sccc21,0.819%
3,COc1ccc(OC)c(CN(CCN2CCOCC2)S(=O)(=O)c2ccc(NC(C)=O)cc2)c1,3.55%
4,CS(=O)(=O)N(CC(=O)Nc1ccc(S(=O)(=O)N2CCOCC2)cc1)c1ccccc1Br,14.5%
5,Cc1cccc(N2CCN(C(=O)CCCCCn3c(=S)[nH]c4ccc(N5CCOCC5)cc4c3=O)CC2)c1C,26.9%
6,O=C(Nc1ccc(F)cc1)C1CCCN1S(=O)(=O)c1ccc(Br)cc1 (stereo not drawn),7.19%
7,Cc1ccc(S(=O)(=O)N2CCN(c3ncccn3)CC2)cc1C,16.5%
8,O=C(N1CCOCC1)N1CCN(c2ccccn2)CC1,-0.0091%
9,O=C(Nc1cccc(Cl)c1)c1cncn1-c1ccc(F)cc1,-52.8%
10,Cc1cc(C(=O)N2CCC(Cc3ccccc3)CC2)c(C)o1,-1.41%
11,Cc1ccc(O)c(C(CC(=O)NCc2cccnc2)c2ccccc2)c1 (stereo not drawn),1.99%
12,Cc1[nH]c2ccccc2c1C(=O)C(C)OC(=O)C1CCC1 (stereo not drawn),-12%
13,COc1ccc(N2CCN(CC(O)COc3cc(C)ccc3C)CC2)cc1.Cl (stereo not drawn),-9.86%
14,CC(=O)Nc1c(N)c2ccccc2oc1=O,12.6%
15,O=C(CSc1nnc(CN2CCOCC2)n1-c1ccc(Cl)cc1)Nc1cc(Cl)ccc1O,7.12%
16,Cc1ncc(CO)c2cc(C(=O)Nc3ccccc3Cl)c(=Nc3cccc(C(N)=O)c3)oc12,5.45%
17,CCOC(=O)/C=C/C(=O)Nc1ccc(-c2nnc3n2CCCCC3)cc1,11.7%
18,O=S1(=O)N[C@@H](CC2=CCCCC2)C2CCCCC2O1 (stereo partly drawn),11.3%
19,Cc1csc(NC(=O)Nc2ccccc2[N+](=O)[O-])n1,11.8%
20,Cc1nc(C(=O)NC2CC2)sc1C1(C)CC(c2ccccc2)=NO1 (stereo not drawn),1.73%
21,COCC1CCCN(Cc2nc(-c3ccc4c(c3)OCO4)no2)C1 (stereo not drawn),0.195%
22,COc1ccc(N(C(C)=O)C2C=CS(=O)(=O)C2)c(OC)c1 (stereo not drawn),15.6%
